Measurements as given in PMC11494340, “High-throughput screening for small-molecule stabilizers of misfolded glucocerebrosidase in Gaucher disease and Parkinson’s disease” (Proceedings of the National Academy of Sciences of the …, 2024).

Biological target: T1, HiBiT-GCase-L444P (Homo sapiens, UniProt P04062, L483P)
T1 sequence (P04062 40-536 L483P): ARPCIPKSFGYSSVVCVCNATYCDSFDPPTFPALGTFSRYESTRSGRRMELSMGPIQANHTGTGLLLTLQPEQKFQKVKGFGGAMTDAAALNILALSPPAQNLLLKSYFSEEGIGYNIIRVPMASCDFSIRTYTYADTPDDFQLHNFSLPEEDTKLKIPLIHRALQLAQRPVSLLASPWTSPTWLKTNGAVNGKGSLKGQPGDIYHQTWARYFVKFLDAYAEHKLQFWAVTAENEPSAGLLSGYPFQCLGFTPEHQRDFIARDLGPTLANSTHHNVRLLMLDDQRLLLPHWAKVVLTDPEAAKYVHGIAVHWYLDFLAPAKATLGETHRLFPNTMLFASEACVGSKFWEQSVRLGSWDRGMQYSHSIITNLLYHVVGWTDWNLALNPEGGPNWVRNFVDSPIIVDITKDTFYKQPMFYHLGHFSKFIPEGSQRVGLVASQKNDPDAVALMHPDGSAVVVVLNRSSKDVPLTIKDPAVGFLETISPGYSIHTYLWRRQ
Set-up: AUC: unit not given beside the values
Settings: follow-up screen, 24 h; for CC-v2: qHTS curve class; for Efficacy: relative to DMSO control

SMILES | AC50 | AUC | CC-v2 | Efficacy
Nc1ccccc1NC(=O)c1ccc(CNc2nccc(-c3cccnc3)n2)cc1 [NCGC00263182-09, Mocetinostat] | 1.1 µM | 270.1 | 1.1 | –
Nc1cc(F)ccc1NC(=O)c1ccc(CNC(=O)/C=C/c2cccnc2)cc1 [NCGC00263598-11, Chidamide] | 5.3 µM | 441.1 | 1.1 | –
Cc1ccc(NC(=O)CCCCCC(=O)Nc2ccccc2N)cc1 [NCGC00263602-04, TC-H 106] | 16.8 µM | 167.1 | 1.1 | 268
Nc1ccccc1NC(=O)CCCCCCC(=O)Nc1ccccc1 [NCGC00263618-04, CAY10433] | 29.8 µM | 130.2 | 1.1 | 282
CC(=O)Nc1ccc(C(=O)Nc2ccccc2N)cc1 [NCGC00263639-09, Tacedinaline] | 9.4 µM | 306.8 | 1.1 | –
Cc1ccccc1C#Cc1ccc(CCC(=O)O)cc1 [NCGC00344089-02, TUG 424] | 33.5 µM | 12.4 | 1.2 | 55
COc1cc2c(cc1-c1c(C)noc1C)ncc1[nH]c(=O)n([C@H](C)c3ccccn3)c12 [NCGC00344588-08, I-BET151] | 0.7 µM | 49.7 | 1.4 | 44
O=C(/C=C/c1ccc(CN(CCO)CCc2c[nH]c3ccccc23)cc1)NO [NCGC00345539-07, Dacinostat] | 0.168 µM | 1068.3 | 1.1 | –
CN1CCc2c(n(Cc3ccc(C(=O)NO)cc3)c3ccccc23)C1 [NCGC00345786-02] | 53 µM and 33.5 µM | 56.3 and 40.8 | 2.1 and 1.1 | 277 and 169
O=C(CCCCCCNC(=O)c1cnc(N(c2ccccc2)c2ccccc2)nc1)NO [NCGC00345802-05, ACY-1215] | 9.4 µM | 330.3 | 2.1 | 352
O=C(Nc1nc2cccc(-c3ccc(CN4CCS(=O)(=O)CC4)cc3)n2n1)C1CC1 [NCGC00345855-05, Filgotinib] | 16.8 µM | 45.7 | 2.1 | –
CN(C)Cc1c(C(=O)NCCOc2ccc(C(=O)NO)cc2)oc2ccccc12 [NCGC00346486-03, Abexinostat] | 0.335 µM | 725.5 | 1.1 | –
Cn1cc(CNCC2CCN(c3ncc(C(=O)NO)cn3)CC2)c2ccccc21 [NCGC00346487-04, Quisinostat] | 0.0335 µM | 1450.8 | 1.1 | –
COc1ccc(-c2nc(N3CCOCC3)c3sc(CN(C)c4ncc(C(=O)NO)cn4)cc3n2)cn1 [NCGC00346692-08, CUDC-907] | 0.0106 µM | 832.4 | 1.3 | –
CC(C)(C)c1nc(-c2cccc(NS(=O)(=O)c3c(F)cccc3F)c2F)c(-c2ccnc(N)n2)s1 [NCGC00346716-06, Dabrafenib] | 13.3 µM | 41.2 | 1.1 | –
CCN(CC)Cc1ccc2cc(COC(=O)Nc3ccc(C(=O)NO)cc3)ccc2c1.Cl.O [NCGC00346743-01, Givinostat hydrochloride] | 0.211 µM | 867.4 | 1.1 | 350
C=C(C)C1Cc2c(ccc3c2OCC(c2ccc(O)cc2O)C3)O1 (stereo not drawn) [NCGC00347653-02] | 29.2 µM | 56.9 | 1.2 | 70
C[C@]12CC[C@H](O)CC1=CC[C@@H]1C2CC[C@]2(C)[C@@H](C3=CC(=O)OC3)CC[C@]12O (stereo partly drawn) [NCGC00347770-02] | 2.6 µM | 138.1 | 1.1 | 147
CCOC(=O)Nc1cc(-c2ccc(C)c(NS(C)(=O)=O)c2)nn2c(C)nnc12 [NCGC00351471-11, Bromosporine] | 4.2 µM | 169.0 | 1.1 | –

“And” between values parts separate entries of the source, which are not always exact repeats. Equal values may be shown once.
